The whole screen tested about 310,000 compounds, of which about 14,000 (4.5%) showed an effect of 50% or more. Effects have a minus sign here. The list shows a part of the results.
molecular target: human ether-à-go-go-related gene (hERG) potassium channel (human, UniProt Q12809); assay: primary screen, population patch clamp on CHO cells stably expressing hERG
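Note: peak tail current of the secondary pulse compared with the same well before compound.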

Sequence of human ether-à-go-go-related gene (hERG) potassium channel (Q12809 whole entry, looked up): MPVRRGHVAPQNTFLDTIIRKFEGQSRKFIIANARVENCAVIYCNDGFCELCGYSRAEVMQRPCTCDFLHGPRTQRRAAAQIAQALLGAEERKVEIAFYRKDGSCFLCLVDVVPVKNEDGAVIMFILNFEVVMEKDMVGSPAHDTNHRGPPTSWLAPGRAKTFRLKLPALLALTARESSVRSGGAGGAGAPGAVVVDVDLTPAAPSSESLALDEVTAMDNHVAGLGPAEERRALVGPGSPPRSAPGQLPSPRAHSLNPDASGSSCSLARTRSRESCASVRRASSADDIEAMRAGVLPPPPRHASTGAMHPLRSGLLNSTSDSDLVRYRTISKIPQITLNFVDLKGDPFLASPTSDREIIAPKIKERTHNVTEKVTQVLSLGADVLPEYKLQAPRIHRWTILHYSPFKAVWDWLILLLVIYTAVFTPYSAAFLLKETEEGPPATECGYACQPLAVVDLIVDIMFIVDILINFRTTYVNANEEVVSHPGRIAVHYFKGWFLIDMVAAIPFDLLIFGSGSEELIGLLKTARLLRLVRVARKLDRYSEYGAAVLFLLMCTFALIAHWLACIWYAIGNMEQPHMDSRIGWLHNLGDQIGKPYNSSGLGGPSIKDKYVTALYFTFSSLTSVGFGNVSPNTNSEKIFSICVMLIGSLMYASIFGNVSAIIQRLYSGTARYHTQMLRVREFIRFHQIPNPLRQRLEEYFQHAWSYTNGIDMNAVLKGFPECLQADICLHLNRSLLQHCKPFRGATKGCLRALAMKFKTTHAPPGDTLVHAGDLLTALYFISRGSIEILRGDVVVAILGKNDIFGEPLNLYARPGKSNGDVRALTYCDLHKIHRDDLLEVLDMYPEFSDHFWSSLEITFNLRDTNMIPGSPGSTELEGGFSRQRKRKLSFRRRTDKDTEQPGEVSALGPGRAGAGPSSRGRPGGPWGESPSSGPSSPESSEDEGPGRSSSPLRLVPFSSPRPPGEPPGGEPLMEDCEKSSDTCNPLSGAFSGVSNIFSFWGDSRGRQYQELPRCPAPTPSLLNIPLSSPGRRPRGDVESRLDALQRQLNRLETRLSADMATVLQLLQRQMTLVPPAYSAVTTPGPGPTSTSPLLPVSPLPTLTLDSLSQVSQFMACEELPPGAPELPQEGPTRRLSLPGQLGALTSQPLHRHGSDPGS

Compound	hERG current change (%, negative = inhibition) at 10uM [%]
CC(C)(C)c1cc(CCC(=O)N2CCCC2)cc(C(C)(C)C)c1O	-0.681
CCOC(=O)C1(CCOc2ccccc2)CCN(Cc2ccc(OC)c(O)c2)CC1	-82.2
O=C(CC(=O)N/N=C\c1ccc([N+](=O)[O-])cc1)NCCc1ccccc1	-16.5
CCOc1ccc(NC(=O)CN(C)CC(=O)Nc2cccc(Cl)c2C)cc1OCC	-10.4
Oc1ccc(N2CCN(C(=S)NCc3ccccc3)CC2)cc1	11.3
O=c1c2c(nc3nc(NCc4ccccc4Cl)[nH]n13)CCC2	24.8
Cc1nnc2sc(-c3ccco3)nn12	14.9
Cc1ccccc1CNC(=O)C1CCC(=O)N(C2CCCCCC2)C1 (centres unmarked)	3.69
Fc1ccc(-c2ccc(Nc3cccc(F)c3)nn2)cc1	21.3
COc1ccc(-c2nc(CS(=O)CC(=O)NCCc3ccc(OC)c(OC)c3)c(C)o2)cc1 (centres unmarked)	-2.18
CC(C)N(Cc1nccn1C)C(=O)c1ccc2oc(CCCc3ccccc3)nc2c1	-41.6
O=C(COC(=O)/C=C/c1ccccc1Cl)NC(=O)Cc1ccccc1	11.2
Cc1ccc(C(=O)COC(=O)CNC(=O)COc2ccccc2C)cc1C	9.34
Cl.OC1(c2ccc(F)cc2)CCNC1 (centres unmarked)	15.8
N#CC1(c2ccccc2)CCCN1C(=O)c1ccccc1Cl (centres unmarked)	5.5
CC1CCC(N2CCN(S(=O)(=O)Cc3ccccc3)CC2)CC1 (centres unmarked)	-4.22
Cc1onc(-c2ccccc2Cl)c1C(=O)Oc1cccc2cccnc12	9.99
CC1(C)C(CC2OCC(CN3CCCCC3)O2)[C@H]2CC[C@@H]1C2 (some centres unmarked)	-0.439
COc1ccc(CCNC(=O)c2ccc3c(c2)N(Cc2ccc(C)cc2)CCS3)cc1OC	8.07

Compound	hERG current change (%, negative = inhibition) at 10uM [%]
O=C(O)Cn1cc(/C=N/Nc2ccc([N+](=O)[O-])cn2)c2ccccc21	23.9
CC(C)n1c(O)c(N=Nc2ccc(Cl)nn2)c2ccccc21	3.18
Cn1c(=O)c2c(nc(SCC(=O)Nc3ccccc3)n2C)n(C)c1=O	-4.52
COc1ccc(NC(=O)c2cnc(SCC(=O)NCCc3ccccc3)n(C)c2=O)cc1	13
CC(NCc1ccccc1Cl)C(=O)Nc1ccc(C#N)cc1 (centres unmarked)	-32.3
COc1ccccc1N1CCN(C(=O)c2cc(-c3ccc4c(c3)OCO4)on2)CC1	1.5
Cc1cc(C=O)c(C)n1-c1ccc(N2CCOCC2)c([N+](=O)[O-])c1	-1.07
COc1cccc(CNS(=O)(=O)c2ccc3c(c2)CC(C)N3C(C)=O)c1 (centres unmarked)	-3.24
CC(=O)NC(CC(=O)NCCc1ccccc1)c1ccccc1 (centres unmarked)	4.67
Cc1cc(C(C)(C)C)oc1C(=O)NCCCNC(=O)c1oc(C(C)(C)C)cc1C	3.46
Cc1ccc(S(=O)(=O)N2CCN(CC(=O)NC3CCCc4ccccc43)CC2)cc1C.O=C(O)C(=O)O (centres unmarked)	-20.5
CC1Cc2cc(-c3csc(NC(=O)Cc4cccs4)n3)ccc2N1S(C)(=O)=O (centres unmarked)	7.28
Cc1cc(=O)oc(C)c1C(=O)NCCCN1CCN(c2ccc(F)cc2)CC1	-53.6
CCOC(=O)c1c(NC(=O)COC(=O)c2cc(OC)c(OC)cc2[N+](=O)[O-])sc(C)c1C	3.48
Cc1onc(-c2c(F)cccc2Cl)c1C(=O)ONC(=O)c1ccccc1	8.85
COCCNC(=O)/C(C#N)=C/c1c(N2CCN(c3ccccc3)CC2)nc2ccccn2c1=O	-20.7
NC(=O)c1c(-c2cccs2)csc1N	3.94
Cc1ccc(C(=O)Nc2nc(-c3ccc([N+](=O)[O-])cc3)cs2)o1	15.9
COC(=O)c1cccc(NC(=O)c2cccc(OC)c2)c1	-2.12

Compound	hERG current change (%, negative = inhibition) at 10uM [%]
CC(C)Cc1nnc(NS(C)(=O)=O)s1	19.3
O=S(=O)(NC1CC1)c1ccc(S(=O)(=O)N2CCCC(c3nc(-c4cccnc4)no3)C2)cc1 (centres unmarked)	-26.3
CC1(C)Cc2c(sc3nc(C4CC4)n(N)c(=O)c23)CO1	9.63
Cc1cc(C)cc(NC(=O)CCN2C(=O)c3ccccc3S2(=O)=O)c1	-7.45
CCCn1c(SCC(=O)N2CCCc3ccccc32)nnc1-c1ccccn1	-3.47
Nc1nonc1-n1nnc(C(=O)N/N=C/c2cccc(Cl)c2)c1CN1CCCCCC1	18.4
O=S(=O)(Nc1nccs1)c1ccc(NS(=O)(=O)c2cccs2)cc1	8.27
O=C(Nc1cc(Cl)ccc1-n1cncn1)c1cn2ccccc2n1	-1.79
CSc1ncc(Cl)c(C(=O)NCc2ccc3c(c2)OCO3)n1	7.54
CCOCCCNC(=O)C1CCN(S(=O)(=O)c2c(C)noc2/C=C\c2ccc(OC)cc2)CC1	0.39
Cc1cccc(NC(=O)CN(C)S(=O)(=O)c2cnc[nH]2)c1	9.84
CCN(CC)c1nc(N)c2c(N)nc(OC)cc2c1C#N	1.77
O=C(O)CCc1ccc(-c2ccc(F)cc2)n1Cc1ccco1	-0.928
CCCCN(Cc1ccco1)C(=O)C1CCCN(c2ncnc3c2nc2n3CCCCC2)C1 (centres unmarked)	-46
CC1CCCCC12NC(=O)N(CC(=O)NCCc1c[nH]c3ccccc13)C2=O (centres unmarked)	-25.8
Cc1ccsc1/C=C/C(=O)O	20
CC(C)CNC(=O)c1cccc(NC(=O)C2CCCO2)c1 (centres unmarked)	12.6
Cc1ccc(N2CC(C(=O)Nc3nnc(SCC(N)=O)s3)CC2=O)cc1 (centres unmarked)	18.8

From publication PMC4336329 (PLoS ONE, 2015)
